In US11178870B2 (priority 2017, dated 2021):

Tests used:
Magnaporthe grisea = assay type: in vivo; details: class of control value, Table 7
Phytophthora infestans = assay type: in vivo; details: class of control value, Table 7
[1] = tested on: Colletotrichum orbiculare; details: 250 ppm spray, 2.5 ml/pot; investigated 6 to 10 days after inoculation

Structure (SMILES)	Test A control value (blast on rice) (Magnaporthe grisea)	Test F control value (late blight on tomato) (Phytophthora infestans)	Test H control value (anthracnose on cucumber) [1]
CCn1c(-c2ccccc2C(F)(F)F)c(-n2cc(C)cn2)ccc1=O [Compound 372]	L (L shows the control value of 50% or less)	L (L shows the control value of 50% or less)	L (L shows the control value of 50% or less)
CCn1c(-c2c(F)cccc2F)c(-c2sc(Br)cc2C)ccc1=O [Compound 386]	H (H shows the control value more than 50%)	L (L shows the control value of 50% or less)	L (L shows the control value of 50% or less)
Cc1cnn(-c2cc(Cl)c(=O)n(CC(F)F)c2-c2ccccc2Br)c1Cl [Compound 407]	H (H shows the control value more than 50%)	L (L shows the control value of 50% or less)	–
